From the supplement of paper PMC4967469
Lines with a small IC50 respond at low doses; a fit beyond the top or the lowest dose is shown as a bound at that dose. AUC, from the same fit, is the share of area under the viability curve across the 256-fold dose range: 1 means no effect, lower means more sensitive. For part of these data: A top dose marked as inferred was derived from the fitted curves, not read from the paper.

Columns and labels:
Assay in all cases: Viability of human cancer cell lines after 72 h of drug (GDSC screen)
TG101348 = compound: Cc1cnc(Nc2ccc(OCCN3CCCC3)cc2)nc1Nc1cccc(S(=O)(=O)NC(C)(C)C)c1 [TG101348]; conditions: top dose 10.24 µM
Method: (§1)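 Human cancer cell lines in 384-well plates, medium with 10% serum, drug for 72 h over a 256-fold dose range (nine 2-fold or five 4-fold steps up to the top dose). Adherent lines were fixed and stained with the nucleic acid dye Syto60, suspension lines read with resazurin; signal relative to control wells, capped at 0 and 100%. One two-parameter sigmoid per drug and line, fitted in a mixed model over all curves with the slope shared within a line.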

CCT018159 = compound: CCc1cc(-c2n[nH]c(C)c2-c2ccc3c(c2)OCCO3)c(O)cc1O [CCT018159]; conditions: top dose 10 µM; top dose inferred
Method: as §1

VX-11e = compound: Cc1cnc(Nc2ccc(F)cc2Cl)nc1-c1c[nH]c(C(=O)N[C@H](CO)c2cccc(Cl)c2)c1 [VX-11e]; conditions: top dose 5.12 µM; top dose inferred
Method: as §1

UNC1215 = compound: O=C(c1ccc(C(=O)N2CCC(N3CCCC3)CC2)c(Nc2ccccc2)c1)N1CCC(N2CCCC2)CC1 [UNC1215]; conditions: top dose 1 µM; top dose inferred
Method: as §1

17-AAG = compound: C=CCNC1=C2C[C@@H](C)C[C@H](OC)[C@H](O)[C@@H](C)/C=C(\C)[C@H](OC(N)=O)[C@@H](OC)/C=C\C=C(/C)C(=O)NC(=CC1=O)C2=O [17-AAG]; conditions: top dose 1 µM
Method: as §1

Vismodegib = compound: CS(=O)(=O)c1ccc(C(=O)Nc2ccc(Cl)c(-c3ccccn3)c2)c(Cl)c1 [Vismodegib]; conditions: top dose 10 µM; top dose inferred
Method: as §1

BIX02189 = compound: CN(C)Cc1cccc(N=C(c2ccccc2)c2c(O)[nH]c3cc(C(=O)N(C)C)ccc23)c1 [BIX02189]; conditions: top dose 20 µM; top dose inferred
Method: as §1

BMX-IN-1 (QL-XII-61) = compound: C=CC(=O)Nc1cc(-n2c(=O)ccc3cnc4ccc(-c5ccc(NS(C)(=O)=O)cc5)cc4c32)ccc1C [BMX-IN-1 (QL-XII-61)]; conditions: top dose 10 µM; top dose inferred
Method: as §1

OSI-027 = compound: COc1cccc2cc(-c3nc([C@H]4CC[C@H](C(=O)O)CC4)n4ncnc(N)c34)[nH]c12 [OSI-027]; conditions: top dose 20 µM
Method: as §1

| Cell Line | AUC (TG101348) | IC50 (TG101348) | AUC (CCT018159) | IC50 (CCT018159) | AUC (VX-11e) | IC50 (VX-11e) | AUC (UNC1215) | IC50 (UNC1215) | AUC (17-AAG) | IC50 (17-AAG) | AUC (Vismodegib) | IC50 (Vismodegib) | AUC (BIX02189) | IC50 (BIX02189) | AUC (BMX-IN-1 (QL-XII-61)) | IC50 (BMX-IN-1 (QL-XII-61)) | AUC (OSI-027) | IC50 (OSI-027) |
| --- | --- | --- | --- | --- | --- | --- | --- | --- | --- | --- | --- | --- | --- | --- | --- | --- | --- | --- |
| OVK-18 (ovary, adherent) | 0.985 | > 10.2 µM | 0.917 | > 10 µM | 0.906 | > 5.12 µM | 0.983 | > 1 µM | 0.586 | 0.111 µM | 0.944 | > 10 µM | 0.971 | > 20 µM | 0.819 | 6.47 µM | 0.83 | 14.5 µM |
| UWB1.289 (ovary, adherent) | 0.967 | > 10.2 µM | 0.961 | > 10 µM | 0.898 | > 5.12 µM | 0.976 | > 1 µM | 0.963 | > 1 µM | 0.976 | > 10 µM | 0.94 | > 20 µM | 0.946 | > 10 µM | 0.64 | 3.69 µM |
| OACp4C (oesophagus, adherent) | 0.645 | 1.75 µM | 0.912 | > 10 µM | 0.673 | 1.07 µM | 0.974 | > 1 µM | 0.864 | > 1 µM | 0.96 | > 10 µM | 0.829 | 16.1 µM | 0.951 | > 10 µM | 0.415 | 0.698 µM |
| SNU-407 (large intestine, adherent) | 0.755 | 4.02 µM | 0.903 | > 10 µM | 0.742 | 1.8 µM | 0.981 | > 1 µM | 0.899 | > 1 µM | 0.983 | > 10 µM | 0.879 | > 20 µM | 0.89 | > 10 µM | 0.524 | 1.47 µM |
| RCC-FG2 (kidney, adherent) | 0.725 | 3.37 µM | 0.955 | > 10 µM | 0.959 | > 5.12 µM | 0.958 | > 1 µM | 0.782 | 0.546 µM | 0.981 | > 10 µM | 0.908 | > 20 µM | 0.979 | > 10 µM | 0.456 | 0.916 µM |
| JHOS-3 (ovary, adherent) | 0.922 | > 10.2 µM | 0.975 | > 10 µM | 0.894 | > 5.12 µM | 0.982 | > 1 µM | 0.876 | > 1 µM | 0.984 | > 10 µM | 0.905 | > 20 µM | 0.861 | > 10 µM | 0.747 | 7.97 µM |
| ESO26 (oesophagus, adherent) | 0.797 | 4.53 µM | 0.96 | > 10 µM | 0.919 | > 5.12 µM | 0.988 | > 1 µM | 0.342 | 0.0234 µM | 0.989 | > 10 µM | 0.948 | > 20 µM | 0.909 | > 10 µM | 0.723 | 5.12 µM |
| OV-7 (ovary, adherent) | 0.845 | > 10.2 µM | 0.962 | > 10 µM | 0.968 | > 5.12 µM | 0.943 | > 1 µM | 0.644 | 0.193 µM | 0.893 | > 10 µM | 0.845 | > 20 µM | 0.967 | > 10 µM | 0.568 | 2.11 µM |
| OVCA433 (ovary, adherent) | 0.888 | > 10.2 µM | 0.913 | > 10 µM | 0.979 | > 5.12 µM | 0.975 | > 1 µM | 0.525 | 0.0738 µM | 0.985 | > 10 µM | 0.957 | > 20 µM | 0.575 | 1.03 µM | 0.791 | 10.1 µM |
| SK-MEL-5 (melanoma, adherent) | 0.903 | > 10.2 µM | 0.975 | > 10 µM | 0.97 | > 5.12 µM | 0.977 | > 1 µM | 0.836 | 0.888 µM | 0.97 | > 10 µM | 0.982 | > 20 µM | 0.971 | > 10 µM | 0.509 | 1.33 µM |
| SNU-C5 (large intestine, adherent) | 0.935 | > 10.2 µM | 0.986 | > 10 µM | 0.866 | > 5.12 µM | 0.984 | > 1 µM | 0.696 | 0.236 µM | 0.965 | > 10 µM | 0.977 | > 20 µM | 0.955 | > 10 µM | 0.898 | > 20 µM |
| KYAE-1 (oesophagus, suspension) | 0.745 | 3.52 µM | 0.921 | > 10 µM | 0.92 | > 5.12 µM | 0.97 | > 1 µM | 0.473 | 0.0524 µM | 0.977 | > 10 µM | 0.912 | > 20 µM | 0.846 | 8.53 µM | 0.165 | 0.103 µM |
| OV-17R (ovary, adherent) | 0.751 | 4.64 µM | 0.981 | > 10 µM | 0.953 | > 5.12 µM | 0.978 | > 1 µM | 0.96 | > 1 µM | 0.981 | > 10 µM | 0.935 | > 20 µM | 0.976 | > 10 µM | 0.42 | 0.691 µM |
| QGP-1 (pancreas, adherent) | 0.844 | > 10.2 µM | 0.967 | > 10 µM | 0.748 | 2.64 µM | 0.977 | > 1 µM | 0.974 | > 1 µM | 0.938 | > 10 µM | 0.902 | > 20 µM | 0.977 | > 10 µM | 0.66 | 4.59 µM |
| SNU-81 (large intestine, adherent) | 0.915 | > 10.2 µM | 0.931 | > 10 µM | 0.923 | > 5.12 µM | 0.979 | > 1 µM | 0.873 | > 1 µM | 0.982 | > 10 µM | 0.98 | > 20 µM | 0.88 | > 10 µM | 0.329 | 0.352 µM |
| YH-13 (glioma, adherent) | 0.858 | 9.23 µM | 0.918 | > 10 µM | 0.986 | > 5.12 µM | 0.985 | > 1 µM | 0.5 | 0.0626 µM | 0.971 | > 10 µM | 0.878 | > 20 µM | 0.95 | > 10 µM | 0.653 | 3.41 µM |
| RCC-AB (kidney, adherent) | 0.715 | 3.18 µM | 0.954 | > 10 µM | 0.855 | > 5.12 µM | 0.978 | > 1 µM | 0.849 | > 1 µM | 0.973 | > 10 µM | 0.885 | > 20 µM | 0.978 | > 10 µM | 0.176 | 0.092 µM |
| JHOS-2 (ovary, adherent) | 0.962 | > 10.2 µM | 0.964 | > 10 µM | 0.941 | > 5.12 µM | 0.975 | > 1 µM | 0.842 | 0.882 µM | 0.981 | > 10 µM | 0.871 | > 20 µM | 0.981 | > 10 µM | 0.74 | 6.92 µM |
| OC-314 (ovary, adherent) | 0.826 | 5.05 µM | 0.83 | 5.08 µM | 0.976 | > 5.12 µM | 0.983 | > 1 µM | 0.676 | 0.179 µM | 0.988 | > 10 µM | 0.942 | > 20 µM | 0.973 | > 10 µM | 0.35 | 0.515 µM |
| EMC-BAC-1 (lung adenocarcinoma, adherent) | 0.642 | 1.68 µM | 0.948 | > 10 µM | 0.861 | > 5.12 µM | 0.982 | > 1 µM | 0.58 | 0.107 µM | 0.973 | > 10 µM | 0.954 | > 20 µM | 0.912 | > 10 µM | 0.687 | 4.52 µM |
| D-566MG (glioma, adherent) | 0.766 | 3.73 µM | 0.788 | 4.34 µM | 0.895 | > 5.12 µM | 0.984 | > 1 µM | 0.378 | 0.029 µM | 0.936 | > 10 µM | 0.939 | > 20 µM | 0.952 | > 10 µM | 0.383 | 0.597 µM |
| Hey (ovary, adherent) | 0.851 | 7.16 µM | 0.823 | 5.44 µM | 0.838 | 3.19 µM | 0.986 | > 1 µM | 0.387 | 0.0312 µM | 0.984 | > 10 µM | 0.946 | > 20 µM | 0.939 | > 10 µM | 0.331 | 0.435 µM |
| SK-GT-4 (oesophagus, adherent) | 0.811 | 7.13 µM | 0.852 | > 10 µM | 0.914 | > 5.12 µM | 0.977 | > 1 µM | 0.466 | 0.0494 µM | 0.976 | > 10 µM | 0.982 | > 20 µM | 0.958 | > 10 µM | 0.415 | 0.692 µM |
| FLO-1 (oesophagus, adherent) | 0.777 | 6.16 µM | 0.901 | > 10 µM | 0.935 | > 5.12 µM | 0.97 | > 1 µM | 0.502 | 0.0637 µM | 0.95 | > 10 µM | 0.796 | 14.5 µM | 0.948 | > 10 µM | 0.683 | 5.15 µM |
| SK-MG-1 (glioma, adherent) | 0.872 | 9.93 µM | 0.945 | > 10 µM | 0.98 | > 5.12 µM | 0.986 | > 1 µM | 0.596 | 0.115 µM | 0.987 | > 10 µM | 0.974 | > 20 µM | 0.955 | > 10 µM | 0.987 | > 20 µM |
| D-423MG (glioma, adherent) | 0.809 | 6.83 µM | 0.852 | > 10 µM | 0.965 | > 5.12 µM | 0.976 | > 1 µM | 0.875 | > 1 µM | 0.866 | > 10 µM | 0.879 | > 20 µM | 0.833 | 8.5 µM | 0.309 | 0.32 µM |
